Changes are numbered by the printed parent chain; changes in the protein carry UniProt numbers. This is one part of the list.

B1: AGAAACU (DNA:RNA)
RNA: GGGAGACCGGAAUUCAGAUUGUCCAGAAACUUUAAAUCCCGUCGUAGCCACCA
DNA 1: CAATCTGAATTCCGGTCTCCC
DNA 2: TGGTGGCTACGACGGGATT
B2: CGCCGCC (DNA:RNA)
RNA: B1 RNA with A25C, A27C, A28C, A29G, U31C
DNA 1: CAATCTGAATTCCGGTCTCCC
DNA 2: TGGTGGCTACGACGGGATT
B3: AAUAUCU (DNA:RNA)
RNA: B1 RNA with G26A, A27U, A29U
DNA 1: CAATCTGAATTCCGGTCTCCC
DNA 2: TGGTGGCTACGACGGGATT
B4: GCGUUCG (DNA:RNA)
RNA: B1 RNA with A25G, G26C, A27G, A28U, A29U, U31G
DNA 1: CAATCTGAATTCCGGTCTCCC
DNA 2: TGGTGGCTACGACGGGATT
B5: GUAGGAG (DNA:RNA)
RNA: B1 RNA with A25G, G26U, A28G, A29G, C30A, U31G
DNA 1: CAATCTGAATTCCGGTCTCCC
DNA 2: TGGTGGCTACGACGGGATT
B6: CUUACAG (DNA:RNA)
RNA: B1 RNA with A25C, G26U, A27U, A29C, C30A, U31G
DNA 1: CAATCTGAATTCCGGTCTCCC
DNA 2: TGGTGGCTACGACGGGATT
B7: GAGCCCC (DNA:RNA)
RNA: B1 RNA with A25G, G26A, A27G, A28C, A29C, U31C
DNA 1: CAATCTGAATTCCGGTCTCCC
DNA 2: TGGTGGCTACGACGGGATT
B8: AUUCGAC (DNA:RNA)
RNA: B1 RNA with G26U, A27U, A28C, A29G, C30A, U31C
DNA 1: CAATCTGAATTCCGGTCTCCC
DNA 2: TGGTGGCTACGACGGGATT
B9: CUUGAUC (DNA:RNA)
RNA: B1 RNA with A25C, G26U, A27U, A28G, C30U, U31C
DNA 1: CAATCTGAATTCCGGTCTCCC
DNA 2: TGGTGGCTACGACGGGATT
B10: AAGCCAC (DNA:RNA)
RNA: B1 RNA with G26A, A27G, A28C, A29C, C30A, U31C
DNA 1: CAATCTGAATTCCGGTCTCCC
DNA 2: TGGTGGCTACGACGGGATT
B11: CCUAUGG (DNA:RNA)
RNA: B1 RNA with A25C, G26C, A27U, A29U, C30G, U31G
DNA 1: CAATCTGAATTCCGGTCTCCC
DNA 2: TGGTGGCTACGACGGGATT
B12: GUGAACU (DNA:RNA)
RNA: B1 RNA with A25G, G26U, A27G
DNA 1: CAATCTGAATTCCGGTCTCCC
DNA 2: TGGTGGCTACGACGGGATT
B13: GAGGGAG (DNA:RNA)
RNA: GGGAGACCGGAAUUCAGAUUGUCCGAGGGAGUUAAAUCCCGUCGUAGCCACCA
DNA 1: CAATCTGAATTCCGGTCTCCC
DNA 2: TGGTGGCTACGACGGGATT
B14: AAGUGUA (DNA:RNA)
RNA: B13 RNA with G25A, G28U, A30U, G31A
DNA 1: CAATCTGAATTCCGGTCTCCC
DNA 2: TGGTGGCTACGACGGGATT
B15: GAUUUUU (DNA:RNA)
RNA: B13 RNA with G27U, G28U, G29U, A30U, G31U
DNA 1: CAATCTGAATTCCGGTCTCCC
DNA 2: TGGTGGCTACGACGGGATT
B16: CCCUAUG (DNA:RNA)
RNA: B1 RNA with A25C, G26C, A27C, A28U, C30U, U31G
DNA 1: CAATCTGAATTCCGGTCTCCC
DNA 2: TGGTGGCTACGACGGGATT
B17: GCGAUGA (DNA:RNA)
RNA: B13 RNA with A26C, G28A, G29U, A30G, G31A
DNA 1: CAATCTGAATTCCGGTCTCCC
DNA 2: TGGTGGCTACGACGGGATT
B18: UGCUUUC (DNA:RNA)
RNA: B1 RNA with A25U, A27C, A28U, A29U, C30U, U31C
DNA 1: CAATCTGAATTCCGGTCTCCC
DNA 2: TGGTGGCTACGACGGGATT
B19: CUUAGUC (DNA:RNA)
RNA: B1 RNA with A25C, G26U, A27U, A29G, C30U, U31C
DNA 1: CAATCTGAATTCCGGTCTCCC
DNA 2: TGGTGGCTACGACGGGATT
B20: UCGUAUA (DNA:RNA)
RNA: B1 RNA with A25U, G26C, A27G, A28U, C30U, U31A
DNA 1: CAATCTGAATTCCGGTCTCCC
DNA 2: TGGTGGCTACGACGGGATT

The target in the assay is T1, RBFOX1 RRM RbFoxmut (Fox-RRM*) (Homo sapiens, UniProt Q9NWB1 109-208, R118D;E147R;N151S;E152T).
T1 sequence: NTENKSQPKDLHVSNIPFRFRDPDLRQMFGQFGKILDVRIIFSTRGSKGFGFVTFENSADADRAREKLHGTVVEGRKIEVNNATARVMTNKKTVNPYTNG
In words: EMSA; HiTS-Eq, 1 nM pool, 10 min; buffer printed only for the single-RNA assays: 10 mM Tris pH 7.5, 150 mM NaCl, 3.4 mM EDTA, 0.001% NP-40, 30 C. To be noted: tags: His6 N-terminal (pET28a); label: 5' 32P. The method, boiled down:
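These values rest on relative association constants, computed from read-count changes of each RNA species versus the control reaction and normalised to the cognate motif. Reads came from free RNA recovered by 8% native PAGE after purified RbFox RRM (wild type or mutant) at increasing concentrations was equilibrated for 10 min in 50 µL with 1 nM of a 5′-radiolabelled pool with 7 randomized nucleotides and DNA-annealed flanks.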
In general terms: In EMSA bound probe runs differently from free probe, usually more slowly.
For the molecule B1, the binding signal was 0.0708 KA relative to UGCAUGU. Consider B2, for which the binding signal is 0.13 KA relative to UGCAUGU. In the case of B3 it was 0.0835 KA relative to UGCAUGU; in that of B4, 0.177 KA relative to UGCAUGU; in that of B5, 0.12 KA relative to UGCAUGU.

Take B6: the binding signal is 0.07 KA relative to UGCAUGU. In the case of B7 it was 0.0485 KA relative to UGCAUGU. In the case of B8 it was 0.0748 KA relative to UGCAUGU; in that of B9, 0.0591 KA relative to UGCAUGU.

In the case of B10, the binding signal was 0.0884 KA relative to UGCAUGU.

In the case of B11, the binding signal is 0.0949 KA relative to UGCAUGU. For B12, the binding signal is 0.0914 KA relative to UGCAUGU.

As to B13, the binding signal was 0.1 KA relative to UGCAUGU. In the case of B14 it was 0.215 KA relative to UGCAUGU; in that of B15, 0.0888 KA relative to UGCAUGU; in that of B16, 0.101 KA relative to UGCAUGU. In the case of B17 it was 0.107 KA relative to UGCAUGU. In the case of B18 it was 0.0833 KA relative to UGCAUGU; in that of B19, 0.104 KA relative to UGCAUGU. Take B20: the binding signal was 0.157 KA relative to UGCAUGU.

Source of the values: article PMC9911399, “Two distinct binding modes provide the RNA-binding protein RbFox with extraordinary sequence specificity”.
